Measurements from US20190016784A1 (CSL BEHRING LENGNAU, published 2019).

Tests used:
[1] = molecular target: T1, CSL627 (recombinant Factor VIII, rVIII-SingleChain) (human, UniProt P00451 20-2351); experiment: SPR detailed kinetics at pH 5.5, 37 C; purified dimer from the single D1D2D′D3-HSA construct captured on anti-HSA antibody, CSL627 injected; 1:1 fit with mass transport
T1 construct: the tie is indirect; also called FVIII; CSL627-rVIII-SingleChain
T1 sequence: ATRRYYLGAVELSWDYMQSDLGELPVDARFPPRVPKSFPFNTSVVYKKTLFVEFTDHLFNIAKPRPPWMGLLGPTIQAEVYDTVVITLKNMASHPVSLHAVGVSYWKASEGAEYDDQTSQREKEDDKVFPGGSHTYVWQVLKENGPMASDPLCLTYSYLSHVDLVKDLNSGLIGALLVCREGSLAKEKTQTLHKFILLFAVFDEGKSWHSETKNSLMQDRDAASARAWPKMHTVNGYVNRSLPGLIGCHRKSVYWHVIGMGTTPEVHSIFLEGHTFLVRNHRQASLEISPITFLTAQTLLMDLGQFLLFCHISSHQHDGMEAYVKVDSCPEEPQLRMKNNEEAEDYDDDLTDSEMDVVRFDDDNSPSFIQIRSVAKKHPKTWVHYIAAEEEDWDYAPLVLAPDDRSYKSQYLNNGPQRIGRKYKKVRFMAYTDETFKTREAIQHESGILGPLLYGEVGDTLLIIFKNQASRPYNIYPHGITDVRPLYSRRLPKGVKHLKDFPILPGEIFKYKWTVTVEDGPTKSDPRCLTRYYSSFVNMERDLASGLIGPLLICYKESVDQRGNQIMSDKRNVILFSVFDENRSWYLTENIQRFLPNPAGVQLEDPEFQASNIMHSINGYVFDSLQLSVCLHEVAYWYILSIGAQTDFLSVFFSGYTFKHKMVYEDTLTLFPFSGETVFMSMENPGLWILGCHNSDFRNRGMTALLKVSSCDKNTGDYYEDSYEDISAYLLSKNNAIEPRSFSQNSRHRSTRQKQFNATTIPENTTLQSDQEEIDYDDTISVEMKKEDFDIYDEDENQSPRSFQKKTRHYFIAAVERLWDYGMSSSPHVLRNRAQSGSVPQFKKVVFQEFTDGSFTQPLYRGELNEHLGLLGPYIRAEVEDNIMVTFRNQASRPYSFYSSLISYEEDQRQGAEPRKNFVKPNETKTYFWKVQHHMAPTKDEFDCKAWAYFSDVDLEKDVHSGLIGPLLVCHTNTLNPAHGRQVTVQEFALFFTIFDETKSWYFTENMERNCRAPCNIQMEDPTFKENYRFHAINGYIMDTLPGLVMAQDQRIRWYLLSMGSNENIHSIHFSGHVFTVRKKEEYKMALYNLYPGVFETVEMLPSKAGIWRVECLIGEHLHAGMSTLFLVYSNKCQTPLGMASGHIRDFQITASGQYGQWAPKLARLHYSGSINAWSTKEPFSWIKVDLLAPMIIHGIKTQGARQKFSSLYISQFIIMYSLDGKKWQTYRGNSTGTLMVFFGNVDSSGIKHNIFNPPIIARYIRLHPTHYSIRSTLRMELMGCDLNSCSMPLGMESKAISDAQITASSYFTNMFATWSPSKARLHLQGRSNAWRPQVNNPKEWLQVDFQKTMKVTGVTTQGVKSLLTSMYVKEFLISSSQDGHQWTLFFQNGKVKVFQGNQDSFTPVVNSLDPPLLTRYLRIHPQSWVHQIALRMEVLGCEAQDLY
Description: (§1) Mouse anti-HSA antibody was immobilized on a CMS chip using standard NHS/EDC coupling chemistry. Typically, the immobilization level was about 14,000 RU. Each Dimer mutant of D′D3-HSA was captured on a single spot in each flow cell for 2 minutes at various concentrations ranging from 0.2-0.7 μg/ml. Capture levels ranged from 50-250 RU. An adjacent spot in which anti-HSA was immobilized, but no D′D3-HSA captured was used as a reference. Capture was performed every cycle, before FVIII (CSL627) binding analysis.
(§2) CSL627 was injected at random and in duplicate over all spots in all flow cells. […] The association was monitored for 5 minutes, while the dissociation was monitored for 20 minutes as well as for 1 hour at the 1 nM concentration. Buffer blanks were also injected. At pH5.5 CSL627 was injected at various concentrations and time frames that best suited the interaction taking place.
(§3) After the dissociation period the surface was regenerated with a 45 second injection of 25 mM Glycine pH2.6. Running buffer throughout was 10 mM HEPES, 150 mM NaCl, 10 mM Na Citrate, 2.5 mM CaCl2, 0.1% BSA, pH7.3 and pH5.5, while the flow rate was 30 μl/min. Each interaction was measured 4 times (n=4) at 37° C.

[2] = molecular target: T1, CSL627 (recombinant Factor VIII, …); experiment: SPR detailed kinetics at pH 7, 37 C; purified dimer from the single D1D2D′D3-HSA construct captured on anti-HSA antibody, CSL627 injected; 1:1 fit with mass transport
Description: as §1, §2, §3

[3] = molecular target: T1, CSL627 (recombinant Factor VIII, …); experiment: SPR detailed kinetics at pH 7, 37 C; purified D′D3-HSA dimer captured on anti-HSA antibody, Factor VIII (CSL627) injected; 1:1 fit with mass transport
Description: (§4) Subsequent experiments were conducted using purified material where detailed kinetic analysis at pH7 was set up for the top two candidates, including controls. vWF-HAS proteins were purified using Capture Select™ Human Albumin affinity resin and then the vWF-HAS dimer further purified by preparation Size Exclusion Chromatography. Purified material was then stored at 4° C. prior to analysis. […] In a similar manner detailed kinetic analysis on the top two candidates, including controls was set up at pH5.5 where Factor VIII was injected at various concentrations that best suited the interaction.
(§5) Throughout all experiments buffer blanks were also injected over all captured proteins. The association and dissociation of Factor VIII was monitored for 3 minutes respectively during the “screening” experiment. The association of CSL627 was monitored for 5 minutes and dissociation was monitored for 20 and 60 minutes during the “detailed kinetic analysis” experiments at neutral pH. At pH 5.5 the association and dissociation of Factor VIII was monitored for various time frames that best suited the interaction.
(§6) Responses for binding to the reference spot were subtracted from those of the vWF-HSA captured spots. Responses from blank injections were then subtracted from those of all other samples to produce double-referenced sensorgrams. Double referenced sensorgrams were fitted to a 1:1 kinetic model, including a term for mass transport limitation. Association and dissociation rates were fitted globally and Rmax fitted locally.

[4] = molecular target: T1, CSL627 (recombinant Factor VIII, …); experiment: SPR at neutral pH, summary in the conclusion
[5] = molecular target: T1, CSL627 (recombinant Factor VIII, …); experiment: SPR detailed kinetics at pH 5.5, 37 C; purified D′D3-HSA dimer captured on anti-HSA antibody, Factor VIII injected; 1:1 fit with mass transport
Description: as §4, §5, §6

[6] = molecular target: T1, CSL627 (recombinant Factor VIII, …); experiment: SPR screen at pH 7; D′D3-HSA from culture supernatant captured on anti-HSA antibody, Factor VIII injected
Description: as §1, with “Each” for “Each Dimer”, “vWF-HSA” for “D′D3-HSA”, “0.1-1” for “0.2-0.7”, “100-200” for “50-250”, “FVIII” for “FVIII (CSL627)”
An initial experiment was set up at neutral pH to screen a series of mutations for the top affinity and off rate improved vWF-HSA mutants. […]
as §5

B1: vWF D′D3-HSA dimer S764E, V1083A (other)
chain: ELSCRPPMVKLVCPADNLRAEGLECTKTCQNYDLECMSMGCVSGCLCPPGMVRHENRCVALERCPCFHQGKEYAPGETVKIGCNTCVCRDRKWNCTDHVCDATCSTIGMAHYLTFDGLKYLFPGECQYVLVQDYCGSNPGTFRILVGNKGCSHPSVKCKKRVTILVEGGEIELFDGEVNVKRPMKDETHFEVVESGRYIILLLGKALSVVWDRHLSISVVLKQTYQEKVCGLCGNFDGIQNNDLTSSNLQVEEDPVDFGNSWKVSSQCADTRKVPLDSSPATCHNNIMKQTMVDSSCRILTSDVFQDCNKLVDPEPYLDACIYDTCSCESIGDCACFCDTIAAYAHVCAQHGKVVTWRTATLCPQSCEERNLRENGYECEWRYNSCAPACQVTCQHPEPLACPVQCVEGCHAHCPPGKILDELLQTCVDPEDCPVCEVAGRRFASGKKVTLNPSDPEHCQICHCDVVNLTCEACQEPGG[omitted - about 600 residues]
notes: not shown: glycine serine linker between VWF part and albumin
Kd [1]: 8.32 nM
koff [1]: 0.0207 s⁻¹
kon [1]: 2.5e+06 M⁻¹ s⁻¹
Kd [2]: 0.0116 nM
koff [2]: 0.000207 s⁻¹
kon [2]: 1.77e+07 M⁻¹ s⁻¹

B2: vWF D′D3-HSA dimer S764G, S766Y, V1083A (other)
chain: GLYCRPPMVKLVCPADNLRAEGLECTKTCQNYDLECMSMGCVSGCLCPPGMVRHENRCVALERCPCFHQGKEYAPGETVKIGCNTCVCRDRKWNCTDHVCDATCSTIGMAHYLTFDGLKYLFPGECQYVLVQDYCGSNPGTFRILVGNKGCSHPSVKCKKRVTILVEGGEIELFDGEVNVKRPMKDETHFEVVESGRYIILLLGKALSVVWDRHLSISVVLKQTYQEKVCGLCGNFDGIQNNDLTSSNLQVEEDPVDFGNSWKVSSQCADTRKVPLDSSPATCHNNIMKQTMVDSSCRILTSDVFQDCNKLVDPEPYLDACIYDTCSCESIGDCACFCDTIAAYAHVCAQHGKVVTWRTATLCPQSCEERNLRENGYECEWRYNSCAPACQVTCQHPEPLACPVQCVEGCHAHCPPGKILDELLQTCVDPEDCPVCEVAGRRFASGKKVTLNPSDPEHCQICHCDVVNLTCEACQEPGG[omitted - about 600 residues]
notes: Albumin fusion, dimer; treated as one molecule; also called GYA; GYA mutant; not shown: glycine serine linker between VWF part and albumin
Kd [3]: 0.0045 nM
koff [3]: 7.3e-05 s⁻¹
kon [3]: 1.63e+07 M⁻¹ s⁻¹
fold improvement in affinity compared to the wild-type dimer [4]: ~20 fold
fold improvement in off rate compared to the wild-type dimer [4]: ~40 fold
Kd [5]: 4.05 nM
koff [5]: 0.00812 s⁻¹
kon [5]: 2.05e+06 M⁻¹ s⁻¹
Kd [1]: 2.93 nM
koff [1]: 0.0156 s⁻¹
kon [1]: 6.81e+06 M⁻¹ s⁻¹
Kd [2]: 0.00496 nM
koff [2]: 6.44e-05 s⁻¹
kon [2]: 1.33e+07 M⁻¹ s⁻¹
Kd [6]: 0.0301 nM
koff [6]: 0.000186 s⁻¹
kon [6]: 6.19e+06 M⁻¹ s⁻¹

B3: vWF D′D3-HSA dimer S764G, V1083A (other)
chain: GLSCRPPMVKLVCPADNLRAEGLECTKTCQNYDLECMSMGCVSGCLCPPGMVRHENRCVALERCPCFHQGKEYAPGETVKIGCNTCVCRDRKWNCTDHVCDATCSTIGMAHYLTFDGLKYLFPGECQYVLVQDYCGSNPGTFRILVGNKGCSHPSVKCKKRVTILVEGGEIELFDGEVNVKRPMKDETHFEVVESGRYIILLLGKALSVVWDRHLSISVVLKQTYQEKVCGLCGNFDGIQNNDLTSSNLQVEEDPVDFGNSWKVSSQCADTRKVPLDSSPATCHNNIMKQTMVDSSCRILTSDVFQDCNKLVDPEPYLDACIYDTCSCESIGDCACFCDTIAAYAHVCAQHGKVVTWRTATLCPQSCEERNLRENGYECEWRYNSCAPACQVTCQHPEPLACPVQCVEGCHAHCPPGKILDELLQTCVDPEDCPVCEVAGRRFASGKKVTLNPSDPEHCQICHCDVVNLTCEACQEPGG[omitted - about 600 residues]
notes: as for B1
Kd [1]: 82.4 nM
koff [1]: 0.0744 s⁻¹
kon [1]: 908000 M⁻¹ s⁻¹
Kd [2]: 0.019 nM
koff [2]: 0.000359 s⁻¹
kon [2]: 1.89e+07 M⁻¹ s⁻¹

B4: vWF D′D3-HSA dimer V805A, Q1158L (other)
chain: SLSCRPPMVKLVCPADNLRAEGLECTKTCQNYDLECMSMGCASGCLCPPGMVRHENRCVALERCPCFHQGKEYAPGETVKIGCNTCVCRDRKWNCTDHVCDATCSTIGMAHYLTFDGLKYLFPGECQYVLVQDYCGSNPGTFRILVGNKGCSHPSVKCKKRVTILVEGGEIELFDGEVNVKRPMKDETHFEVVESGRYIILLLGKALSVVWDRHLSISVVLKQTYQEKVCGLCGNFDGIQNNDLTSSNLQVEEDPVDFGNSWKVSSQCADTRKVPLDSSPATCHNNIMKQTMVDSSCRILTSDVFQDCNKLVDPEPYLDVCIYDTCSCESIGDCACFCDTIAAYAHVCAQHGKVVTWRTATLCPQSCEERNLRENGYECEWRYNSCAPACQVTCLHPEPLACPVQCVEGCHAHCPPGKILDELLQTCVDPEDCPVCEVAGRRFASGKKVTLNPSDPEHCQICHCDVVNLTCEACQEPGG[omitted - about 600 residues]
notes: Albumin fusion, dimer; tested from culture supernatant; not shown: glycine serine linker between VWF part and albumin
Kd [6]: 0.149 nM
koff [6]: 0.000632 s⁻¹
kon [6]: 4.26e+06 M⁻¹ s⁻¹
